Our source for the AUC and IC50 values is the supplement of paper PMC4967469.

pIC50: −log10 of the molar value. A lower IC50 marks a more sensitive line; where the fit passes the top or lowest dose, that dose stands as a limit. AUC, from the same fit, is the share of area under the viability curve across the 256-fold dose range; the more sensitive the line, the further below 1. For some of these results: Where the top dose is marked as inferred, it is not printed in the source and was worked back from the curve model. For some of these results: An entry number marks a drug with two screens in the source, which often give different values.

What all share (experiment): Viability of human cancer cell lines after 72 h of drug (GDSC screen)
Compound in one assay: Nc1ccn([C@@H]2O[C@H](CO)[C@@H](O)C2(F)F)c(=O)n1 [Gemcitabine]
The following applies: top dose 1.024 µM. As to the method: (§1)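 Human cancer cell lines in 384-well plates, medium with 10% serum, drug for 72 h over a 256-fold dose range (nine 2-fold or five 4-fold steps up to the top dose). Adherent lines were fixed and stained with the nucleic acid dye Syto60, suspension lines read with resazurin; signal relative to control wells, capped at 0 and 100%. One two-parameter sigmoid per drug and line, fitted in a mixed model over all curves with the slope shared within a line.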

Compound in a further assay: CC(O)(CS(=O)(=O)c1ccc(F)cc1)C(=O)Nc1ccc(C#N)c(C(F)(F)F)c1 [Bicalutamide]
Particulars: top dose inferred. As to the method:
as §1

Compound in another assay: O=S(=O)(c1ccccc1)N(CC(F)(F)F)c1ccc(C(O)(C(F)(F)F)C(F)(F)F)cc1 [T0901317]
Particulars: top dose 10.24 µM; top dose inferred. The protocol:
as §1

Compound in the next assay: Cc1cn(-c2cc(NC(=O)c3ccc(C)c(Nc4nccc(-c5cccnc5)n4)c3)cc(C(F)(F)F)c2)cn1 [Nilotinib]
Particulars: top dose 2 µM. As to the method: as §1

Compound in the next assay: CCNC(=O)c1noc(-c2cc(C(C)C)c(O)cc2O)c1-c1ccc(CN2CCOCC2)cc1 [AUY922]
The following applies: top dose 0.256 µM; top dose inferred. The protocol: as §1

Compound in another assay: Cc1ccc(Nc2cc(-c3cccc(N4C(=O)c5ccccc5C4=O)c3)ncn2)cc1NS(C)(=O)=O [KIN001-270]
The following applies: top dose 20 µM; top dose inferred. The protocol:
as §1

Compound in a further assay: S=C(NCc1ccc2c(c1)OCO2)N1CCN(c2ncnc3c2oc2ccccc23)CC1 [MP470]
Particulars: top dose 20 µM; top dose inferred. As to the method: as §1

Compound in another assay: C/C(O)=C(\C#N)C(=O)Nc1cc(Br)ccc1Br [LFM-A13]
Particulars: top dose 16 µM; top dose inferred. The protocol: as §1

Compound in another assay: CC(C)c1ccccc1Cc1cc(C(=O)Nc2ccc(S(=O)(=O)c3ccccc3C(C)(C)C)cc2)c(O)c(O)c1O [TW-37]
The following applies: top dose 5 µM. The protocol:
as §1

[1] abbreviates: top dose 1.024 µM, screen: GDSC drug entry 150.
Setting [2] is: top dose 10 µM, screen: GDSC drug entry 1502.

As a reminder, the pIC50 is the IC50 on a negative log10 scale, so that one unit is a factor of ten. Regarding ASH-3 (thyroid, adherent), the AUC with Gemcitabine was 0.373; with Bicalutamide (setting [1]), 0.868; with Bicalutamide (setting [2]) it was 0.987; with T0901317, 0.988; in the assay with Nilotinib, 0.956; with AUY922, 0.53. Moreover, the AUC came to 0.988 in the assay with KIN001-270, 0.982 with MP470, 0.871 in the assay with LFM-A13 and 0.341 in the assay with TW-37. Further, the pIC50 with Gemcitabine was 7.55; with Bicalutamide (setting [1]), 6.03; with Bicalutamide (setting [2]), below 5.00; in the assay with T0901317 it was below 4.99; in the assay with Nilotinib, below 5.70; in the assay with AUY922, 7.71. The negative logarithm of the IC50 (pIC50) with KIN001-270 is below 4.70; with MP470 it was below 4.70; with LFM-A13 it was 4.82; with TW-37 it was 6.95.

On to PA-1 (ovary, adherent), for which the AUC in the assay with Gemcitabine was found to be 0.143; with Bicalutamide (setting [1]) it was 0.991; with T0901317, 0.93; in the assay with Nilotinib, 0.993; in the assay with AUY922 it was 0.549; in the assay with KIN001-270, 0.885. The AUC in the assay with MP470 is 0.973; with LFM-A13, 0.989; with TW-37, 0.359. Besides, the pIC50 with Gemcitabine was 8.14; in the assay with Bicalutamide (setting [1]), below 5.99; in the assay with T0901317, below 4.99; in the assay with Nilotinib, below 5.70; with AUY922, 7.68; in the assay with KIN001-270, 4.86. Besides, the pIC50 was below 4.70 with MP470, below 4.80 with LFM-A13 and 6.85 with TW-37.

Regarding HSC-4 (head and neck, adherent), the AUC in the assay with Gemcitabine stood at 0.136; with Bicalutamide (setting [1]) it was 0.979; with Bicalutamide (setting [2]), 0.943; with T0901317, 0.956; with Nilotinib, 0.959; with AUY922, 0.759. Further, the AUC is 0.949 in the assay with KIN001-270, 0.758 with MP470, 0.975 with LFM-A13 and 0.451 in the assay with TW-37. In addition, the pIC50 with Gemcitabine was above 8.40; with Bicalutamide (setting [1]), below 5.99; with Bicalutamide (setting [2]), below 5.00; with T0901317, below 4.99; with Nilotinib, below 5.70; with AUY922, 6.93. The pIC50 with KIN001-270 was below 4.70; with MP470, 5.04; with LFM-A13, below 4.80; with TW-37 it was 6.66.

For the cell line MG-63 (osteosarcoma, adherent), the AUC with Gemcitabine was found to be 0.106; in the assay with Bicalutamide (setting [1]), 0.984; with T0901317 it was 0.983; with Nilotinib, 0.969; with AUY922, 0.435; in the assay with KIN001-270 it was 0.982. Further, the AUC stood at 0.984 with MP470, 0.971 in the assay with LFM-A13 and 0.427 with TW-37. Also, the pIC50 in the assay with Gemcitabine was above 8.40; in the assay with Bicalutamide (setting [1]), below 5.99; with T0901317 it was below 4.99; with Nilotinib, below 5.70; with AUY922, 7.99; with KIN001-270, below 4.70. Further, the pIC50 with MP470 was below 4.70; with LFM-A13, below 4.80; with TW-37, 6.72.

For the cell line HEC-1 (endometrium, adherent), the AUC in the assay with Gemcitabine was determined as 0.592; in the assay with Bicalutamide (setting [1]) it was 0.988; in the assay with Bicalutamide (setting [2]), 0.988; with T0901317, 0.983; with Nilotinib, 0.943; in the assay with AUY922, 0.719. The AUC with KIN001-270 came out at 0.989; in the assay with MP470 it was 0.953; with LFM-A13, 0.981; with TW-37, 0.41. Also, the pIC50 with Gemcitabine was 6.95; with Bicalutamide (setting [1]) it was below 5.99; with Bicalutamide (setting [2]) it was below 5.00; with T0901317, below 4.99; with Nilotinib, below 5.70; with AUY922 it was 7.19. The pIC50 is below 4.70 in the assay with KIN001-270, below 4.70 in the assay with MP470, below 4.80 with LFM-A13 and 6.75 with TW-37.

On to FU97 (stomach, adherent), for which the AUC was determined as 0.954 in the assay with Gemcitabine; 0.986 with Bicalutamide (setting [1]); 0.964 in the assay with Bicalutamide (setting [2]); 0.982 with T0901317; 0.966 in the assay with Nilotinib; 0.588 with AUY922. In addition, the AUC with KIN001-270 came to 0.948; with MP470 it was 0.85; with LFM-A13 it was 0.922; in the assay with TW-37 it was 0.55. For the same cell line, the pIC50 with Gemcitabine is below 5.99; with Bicalutamide (setting [1]), below 5.99; with Bicalutamide (setting [2]), below 5.00; with T0901317 it was below 4.99; in the assay with Nilotinib it was below 5.70; in the assay with AUY922, 7.55. For the same cell line, the pIC50 with KIN001-270 is below 4.70; in the assay with MP470, 4.80; in the assay with LFM-A13, below 4.80; with TW-37, 6.37.

Consider WM35 (melanoma, adherent), for which the AUC worked out at 0.158 in the assay with Gemcitabine; 0.986 in the assay with Bicalutamide (setting [1]); 0.977 with Bicalutamide (setting [2]); 0.986 with T0901317; 0.971 in the assay with Nilotinib; 0.513 with AUY922. Further, the AUC with KIN001-270 was 0.974; in the assay with MP470 it was 0.842; with LFM-A13, 0.969; with TW-37, 0.447. In addition, the pIC50 with Gemcitabine is 8.25; in the assay with Bicalutamide (setting [1]) it was below 5.99; in the assay with Bicalutamide (setting [2]), below 5.00; with T0901317, below 4.99; with Nilotinib, below 5.70; with AUY922 it was 7.76. For the same cell line, the pIC50 with KIN001-270 is below 4.70; in the assay with MP470, 4.85; in the assay with LFM-A13 it was below 4.80; in the assay with TW-37, 6.65.
